According to PubChem BioAssay AID493208 (National Center for Advancing Translational Sciences (NCATS), 2011):
The campaign covered roughly 44,000 compounds. About 340 (0.77%) were called active. Another 5% or so got no clear call; they are omitted. Calls follow the shape of the dose curve; as a rule, active = well fitted inhibition curve with a large enough effect; inconclusive = small, poorly fitted or top-dose-only effect; inactive = flat fitted curve, though single readings scatter. Some of the results follow.

assay: Acumen qHTS Assay for Inhibitors of the mTORC1 Signaling Pathway in MEF (Tsc2-/-, p53-/-) Cells: Sytravon; details: phospho-rpS6 immunofluorescence/PI, 24 h; series mostly up to 38.3 µM; activity change, negative = inhibition: at the top concentration;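 also: plate controls were DMSO for no effect and rapamycin for full effect; nearly all actives have a fitted effect of over 50% in size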
In short: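 Tsc2-/-, p53-/- MEFs (empty-vector stable line) in DMEM + 10% FBS were treated with compounds 24 h at 37 degree Celsius, fixed, and immunostained for phospho-rpS6 (Alexa-488) with propidium iodide counterstain. Laser-scanning cytometry gave % positive cells, normalized against 7.5 nM rapamycin and DMSO.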

Activity change, negative = inhibition, inactive:
CCc1nn2c(=O)cc(COC(=O)c3ccccc3)nc2s1 -1.79%
CCn1c(SCc2c(F)cccc2Cl)nc(=O)c2c(C(=O)OC)cc(C3CC3)nc21 2.51%
O=C(c1ccccc1Br)N(Cc1ccco1)Cc1ccco1 0.79%
CCc1ccc(C(=O)c2cn(CC(=O)Nc3cccc(OC)c3)c3cc4c(cc3c2=O)OCO4)cc1 0.0239%
CCOc1ccccc1NC(=O)CN(C)S(=O)(=O)c1ccc(C(=O)N2CCOCC2)s1 14.3%
O=c1c(=O)n(-c2ccc(F)c(F)c2)ccn1Cc1ccc(F)cc1Cl 8.84%
COc1ccc(C)cc1NC(=O)C1CCCN(c2ncnc3onc(C)c23)C1 (stereo unspecified) -0.381%
CCOC(=O)C1=C(CS(=O)(=O)c2ccc(F)c(C)c2)NC(=O)NC1c1ccccc1OC (stereo unspecified) -11%
CCc1nn(CC(=O)N2CCCCC2)c(=O)c2cc3occc3n12 -8.92%
CCOC(=O)c1noc2ncn(CC(=O)Nc3cccc(C(F)(F)F)c3)c(=O)c12 -8.82%
Cc1cccc(NC(=O)CCn2cnc3ccccc3c2=O)c1 -24.4%
CCOc1ccc(NC(=O)N2CCN(c3nnc(C)c4c(C)n(-c5ccccc5)nc34)CC2)cc1 -6.55%
CCCCn1c(=O)n(-c2cc(OC)ccc2OC)c(=O)c2c3c(sc21)CN(C(C)=O)CC3 0.61%
COc1ccc(-n2nc(C(=O)Nc3cc(C)ccn3)c3c4ccccc4n(C)c3c2=O)cc1 -3.15%
CCOc1ccc(-n2nc3ccc(NC(=O)c4ccc(OC)c(Cl)c4)cc3n2)cc1 2.46%
Cc1cc(Nc2cccc(Cl)c2)nc2ccc(NC(=O)c3cncc(Br)c3)cc12 -7.12%
O=C(CC1N=C2c3ccccc3N=C(SCc3ccccc3Cl)N2C1=O)NCCc1ccccc1 (stereo unspecified) -3.29%
Cc1ccc2c(=O)cc(C(=O)Nc3sc4c(c3C(=O)NCC3CCCO3)CCC4)oc2c1 (stereo unspecified) 0.167%
Cc1oc(-c2ccccc2Cl)nc1CS(=O)(=O)CC(=O)NCc1ccc(F)cc1 -0.891%
CCC(C(=O)NCc1ccccc1OC)n1nc(C)n2c(cc3occc32)c1=O (stereo unspecified) -4.74%
CCOC(=O)Cn1c(=O)n(CC2CCCO2)c2nc(-c3ccccc3)nc(C(N)=O)c21 (stereo unspecified) 3.16%
COc1ccc(C(=O)Nc2ccc(N(C)Cc3ccccc3)c(C(=O)O)c2)cc1 -0.737%
CCOC(=O)C1=C(CN2CCN(c3ccccc3OC)CC2)NC(=O)NC1c1ccccc1 (stereo unspecified) 2.13%
CC(C)NC(=O)N1[C@H](c2cccs2)[C@@H](C)C(=O)[C@@H](C)[C@@H]1c1cccs1 6.69%
O=C(CN1CCCN(Cc2ccccc2F)S1(=O)=O)Nc1ccc(F)c(Cl)c1 -3.43%
Cc1cc(C)cc(NC(=O)N2CCC(CN3CCOCC3)CC2)c1 -5.36%
COc1ccc(-c2nnc(SCC(=O)NCCC(C)C)nc2-c2ccc(OC)c(OC)c2)cc1OC 0.413%
Cc1ccc(CNCc2ccccc2Cl)s1 -14.3%
COCc1cc(C)nc2c1C(=O)NC(c1ccc(F)cc1)N2Cc1ccccc1 (stereo unspecified) 1.98%
COC(=O)c1cc2oc(C)cc2n1CC(=O)Nc1ccc(C(C)C)cc1 0.647%
CCCCNC(=O)c1ccc2c(=O)n(Cc3ccc(OC)cc3)c(=O)[nH]c2c1 -9.73%
CC1Cc2ccccc2N1C(=O)CSc1nc2ccc(NC(=O)COc3ccccc3)cc2s1 (stereo unspecified) -3.45%
CC1=C(C(=O)NCc2cccc(F)c2)C2(CCCCC2)OC1=O -0.174%
N#Cc1c(C(F)(F)F)cc(-c2cccs2)nc1SCc1ccc(F)cc1 0.0931%
CCOC(=O)C(C)Sc1ccc2nnc(CCNS(=O)(=O)c3ccc(C)cc3)n2n1 (stereo unspecified) -9.16%
Cc1ccccc1CSc1cn(CC(=O)N2CCCCC2)c2ccccc12 -9.7%
CCOC(=O)c1c(C)oc2nc(C)nc(NCC3CCN(Cc4ccc(C)cc4)CC3)c12 -3.5%
Cc1nn(C)cc1CN(C)C(=O)c1cc(-c2ccccc2)nc2ccc(Br)cc12 0.98%
CCOc1ccc(CCNC(=O)c2oc(=O)c3ccccc3c2-c2ccc(C)cc2)cc1OCC 0.808%
Cc1ccc(NC(=O)CCS(=O)(=O)c2ccc(Br)s2)c(Br)c1 1.74%
CC(C)(C)c1ccc(C(=O)NCCc2csc(-c3ccc(Cl)cc3)n2)cc1 -1.18%
Cc1ccc(C)c(N2CCN(S(=O)(=O)c3ccc4c(c3)C(C(C)C)C(=O)N4)CC2)c1 (stereo unspecified) -7.42%
CSc1ncc(C(=O)NCc2ccccc2F)c(-c2ccccc2)n1 -0.244%
CCCc1ccc(OCC(=O)Nc2sc(C(=O)OCC)c(C)c2C(=O)OCC)cc1 -7.07%
CCc1ccccc1NS(=O)(=O)c1ccc2[nH]cc(C(=O)N(CC)Cc3ccccc3)c(=O)c2c1 1.64%
COc1ccc(OC)c(C2CC(=O)Nc3c2c(=O)[nH]c2ncnn32)c1 (stereo unspecified) 0.775%
COc1ccc(C2NC(=O)N(C)C3=C2C(=O)N(c2ccc(C(=O)O)cc2)C3)cc1 (stereo unspecified) 6.12%
CCc1ccc(C2CC(=O)c3c([nH]c(C(=O)OC4CCCC4)c3C)C2)cc1 (stereo unspecified) -5.75%
COc1cccc(-c2nc(CS(=O)(=O)CC(=O)N3CCN(c4cc(C)ccc4C)CC3)c(C)o2)c1 -1.65%
CCOC(=O)c1ccc(CN(Cc2ccc(F)cc2)S(=O)(=O)c2ccc(F)c(C(=O)Nc3c(C)cccc3C)c2)cc1 10.6%
CCc1ccc2occ(CC(=O)Nc3c(C(=O)c4ccc(C)cc4)oc4ccccc34)c2c1 1.96%
COc1ccc(S(=O)(=O)Nc2c(C)nc3nc[nH]n3c2=O)cc1 -8.08%
Cc1ccc2c(CNCc3ccc(C)o3)c(C(=O)O)n(Cc3ccccc3C)c2c1 -6.79%
Cc1cc(S(=O)(=O)C(CNC(=O)c2ccc(F)c(F)c2)c2cccs2)ccc1F (stereo unspecified) 15.4%
Cc1ccc(S(=O)(=O)n2nc(-c3ccc(Cl)cc3)nc2NCc2ccc(F)cc2)cc1 -12.6%
CC(=O)N1CCCc2cc(S(=O)(=O)N3CCCC(C(=O)N4CCN(c5ccccc5)CC4)C3)ccc21 (stereo unspecified) -17.8%
Cc1cc(C)c2c(CC(=O)Nc3ccc(S(=O)(=O)Nc4nc(C)cc(C)n4)cc3)coc2c1 2.06%
COc1ccc(CNC(=O)c2cc3cc(OC)ccc3oc2=O)cc1 -23.5%
COc1ccc2c(c1)cc1c(=O)n(CC(=O)NC(C)CCc3ccccc3)nc(C)n12 (stereo unspecified) -2.49%
Cc1ccc(-c2ccc(=O)n(CC(=O)NCCc3ccccc3)n2)cc1 4.99%
Cc1ccc(-n2ncc3c(Nc4cccc(C(=O)O)c4)ncnc32)cc1 12.9%
